Laboratory results as given in publication PMC4336329 (PLoS ONE, 2015).
Among all 310,000 compounds or so, about 2,200 (0.71%) showed an effect of 50% or more. The effect is printed as a negative number. Some of the results follow.

Biological target: human ether-à-go-go-related gene (hERG) potassium channel (human, UniProt Q12809)
Assay: primary screen, population patch clamp on CHO cells stably expressing hERG

Chain of human ether-à-go-go-related gene (hERG) potassium channel (Q12809 whole entry, looked up): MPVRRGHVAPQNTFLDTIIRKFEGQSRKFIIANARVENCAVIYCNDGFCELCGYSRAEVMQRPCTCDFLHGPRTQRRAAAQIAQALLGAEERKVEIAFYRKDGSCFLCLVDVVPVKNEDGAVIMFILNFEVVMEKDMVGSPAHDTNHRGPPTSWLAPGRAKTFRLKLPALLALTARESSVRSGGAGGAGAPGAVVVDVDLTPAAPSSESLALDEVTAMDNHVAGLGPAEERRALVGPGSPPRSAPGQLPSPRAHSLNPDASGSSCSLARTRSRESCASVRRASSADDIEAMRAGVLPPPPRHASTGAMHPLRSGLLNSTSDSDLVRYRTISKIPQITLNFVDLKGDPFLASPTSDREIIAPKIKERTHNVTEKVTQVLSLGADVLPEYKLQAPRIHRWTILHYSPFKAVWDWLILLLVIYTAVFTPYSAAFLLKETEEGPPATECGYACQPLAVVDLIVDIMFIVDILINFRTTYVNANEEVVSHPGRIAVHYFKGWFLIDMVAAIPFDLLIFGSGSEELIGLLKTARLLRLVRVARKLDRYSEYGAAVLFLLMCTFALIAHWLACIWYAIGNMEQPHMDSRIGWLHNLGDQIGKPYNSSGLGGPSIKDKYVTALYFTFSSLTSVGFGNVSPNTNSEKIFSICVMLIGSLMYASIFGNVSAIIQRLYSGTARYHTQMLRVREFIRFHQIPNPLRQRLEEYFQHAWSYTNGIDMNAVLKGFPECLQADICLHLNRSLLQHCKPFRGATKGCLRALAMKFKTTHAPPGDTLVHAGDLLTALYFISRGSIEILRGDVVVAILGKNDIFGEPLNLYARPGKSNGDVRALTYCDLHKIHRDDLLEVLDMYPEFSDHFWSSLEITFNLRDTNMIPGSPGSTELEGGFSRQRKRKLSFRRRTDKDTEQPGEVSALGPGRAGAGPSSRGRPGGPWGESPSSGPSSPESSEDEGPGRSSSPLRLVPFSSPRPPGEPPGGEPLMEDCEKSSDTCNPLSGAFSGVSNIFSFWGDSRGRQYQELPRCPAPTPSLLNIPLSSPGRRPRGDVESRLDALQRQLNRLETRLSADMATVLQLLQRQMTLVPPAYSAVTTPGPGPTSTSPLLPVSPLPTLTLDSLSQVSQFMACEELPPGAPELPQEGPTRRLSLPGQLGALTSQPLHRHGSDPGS

SMILES	hERG current change (%, negative = inhibition) at 1uM
O=c1cc(NC2CCCCCC2)[nH]c(=O)[nH]1	0.773%
CCN(CC)CCn1cnc2c1c(=O)n(CCOC(=O)c1cc(OC)c(OC)c(OC)c1)c(=O)n2C.Cl	-21%
CCc1cccc2c(/C=N/NC(=O)c3cccc(S(=O)(=O)Nc4ccccc4Cl)c3)c[nH]c12	16.1%
CC(C)(O)C(=O)NN(C(=O)c1ccccc1)c1ccc2ccccc2c1	6.78%
O=C(CCCCCNC(=O)c1ccccc1)C[N+](=O)[O-]	8.57%
CCc1cc(C(=O)Nc2cc(S(=O)(=O)N(C)C)ccc2C)sc1C	-2.22%
O=C(NNC(=O)c1cc(Br)c(Br)s1)c1ccncc1	5.26%
CCCOc1ccc(CC(=O)N/N=C\c2ccc(F)cc2)cc1	9.41%
Cc1ccc(-n2nc(C)c3onc(C)c3c2=O)cc1	11.8%
O=C(c1ccc(Cl)cc1)N1CCCC(C(=O)N2CCN(c3ccccc3)CC2)C1 (stereo not drawn)	-12.2%
COc1ccc(NC(=O)CSc2nnc(C3CCCCC3)n2N)cc1OC	30.2%
COc1cccc(Nc2nc(-c3cccs3)nc3ccccc23)c1	5.54%
CC(=O)Oc1ccc(/C=C(\NC(=O)c2ccco2)C(=O)NCc2ccco2)cc1	-11%
Cc1ccc(S(=O)(=O)NCCCn2ccnc2)cc1C(=O)NC(C)C	13.1%
O=C(NCc1ccccc1)NC12CC3CC(CC(C3)C1)C2	7.64%
Cc1ccc(S(=O)(=O)N2CCOC23CCN(C(=O)c2cc(Cl)ccc2Cl)CC3)cc1	4.66%
CCCCCCn1nc(C(=O)N(CC(C)C)c2c(N)n(CCCC)c(=O)[nH]c2=O)c2ccccc2c1=O	6.49%
O=C(NNS(=O)(=O)c1ccc(F)cc1)c1ccccc1O	13.6%
O=c1c(Cl)c(N/N=C/c2ccc(Cl)cc2)cnn1-c1ccccc1	3.1%
COc1ccc(C(=O)Nc2cc(Cl)ccc2C(=O)O)cc1	15.3%
CC(C)Cn1c(SCC(=O)Nc2cc(Cl)c(Cl)cc2Cl)nc(O)cc1=O	6.48%
O=C(COC(=O)/C=C/c1ccco1)NCc1ccccc1Cl	12.9%

SMILES	hERG current change (%, negative = inhibition) at 1uM
O=C(NCc1ccccc1)c1onc(CSc2ccccc2)c1C(=O)NCC1CC1	-7.12%
Cc1occc1-c1nnc(SCc2nnc(-c3ccc(Cl)cc3)o2)n1C	-10.9%
COc1ccccc1NC(=O)CSCc1cc(=O)n2ccsc2n1	13.4%
COc1ccc(C)cc1NC(=O)c1ccc(OC(F)F)cc1	7.38%
COC(=O)c1cc(C(=O)Nc2ccc(Cl)cn2)cc([N+](=O)[O-])c1	4.96%
COc1ccccc1CN1CC(=O)N2CSC[C@H]2C1=O	8.7%
CCOc1ccc(C(=O)NCC(=O)N2CCCC2)cc1	6.73%
COCCn1nnnc1C(c1ccccn1)N1CCN(c2cc(C)ccc2C)CC1.Cl (stereo not drawn)	9.25%
O=C1CC(=C2c3ccccc3-c3ccccc32)C(=O)N1CCN1CCN(c2cccc(Cl)c2)CC1	7.4%
C/C(=N\NC(=O)c1ccc(NS(=O)(=O)c2cccs2)cc1)c1ccc(C(C)(C)C)cc1	7.57%
CN1CCN(C(=O)c2cnn(-c3ccccc3)c2NC(=O)c2ccccc2Br)CC1	15.2%
Cc1ccc(C(c2ccc(C)o2)c2cccc([N+](=O)[O-])c2O)o1	1.45%
Cc1ccc(OC(C)C(=O)Nc2ccc3c(c2)n(C)c(=O)n3C)cc1C (stereo not drawn)	11.4%
COc1ccccc1CNC(=O)Cc1ccccc1	8.24%
CC12COC3(P(=O)(c4ccccc4)c4ccccc4)CC1CCC23CP(=O)(c1ccccc1)c1ccccc1 (stereo not drawn)	7.74%
Cc1cc(=O)[nH]c(SCC(=O)N2CCN(C(c3ccccc3)c3ccccc3)CC2)n1	2.8%
CC(=O)c1ccc(Nc2nc(NCCO)nc(OC(C(F)(F)F)C(F)(F)F)n2)cc1	3.66%
O=C(NCCCN1CCOCC1)c1ccc2c(c1)N(Cc1cccc(F)c1)C(=O)c1ccccc1S2	18.9%
COc1ccc(OC)c(/C=C2/Sc3ccccc3C2=O)c1	14.4%
CCc1cc2c(=O)c(-c3nc4ccccc4n3C)coc2c(CN2CCN(C)CC2)c1O	-1.89%
Br.COc1ccc2c(c1)[C@]13CCCC[C@@H]1[C@H](C2)N(C)CC3.O	12.8%
CCOc1cc(/C=N/NC(N)=O)cc(Br)c1OCC(=O)Nc1cccc2ccccc12	14.3%

SMILES	hERG current change (%, negative = inhibition) at 1uM
O=C(CSc1ncnc2c1oc1ccccc12)Nc1ccccc1F	16.4%
CC(C)c1ccc(S(=O)(=O)NCc2ccc3c(c2)OCO3)cc1	11.5%
COC(=O)COc1ccc(S(=O)(=O)Nc2ccc(C(N)=O)cc2)cc1Cl	19.9%
Cc1cc(/C=C(\C#N)C(=O)Nc2ccccc2F)c(C)[nH]1	22.7%
COc1ccc(/C=N/Nc2nc3ccccc3o2)cc1O	6.35%
NS(=O)(=O)c1cccnc1Nc1cccc(Cl)c1	10.5%
CSc1nc(-c2ccccc2)cc(C(F)(F)F)c1C#N	-0.616%
CSc1ccc(C(=O)C2CCCN(Cc3cccn3-c3cccnc3)C2)cc1 (stereo not drawn)	6.9%
CCC(C)(C)NC(=O)c1ccc2c(c1)S(=O)(=O)c1ccccc1C2=O	1.48%
CCc1ccc2c(c1)Sc1ccccc1CC2N1CCN(C)CC1.CS(=O)(=O)O.O (stereo not drawn)	2.55%
COc1ccc(C2/C=C\CN(C(=O)c3ccccc3)[C@H](Cc3ccccc3)C(=O)N2Cc2ccc(F)cc2)cc1 (stereo partly drawn)	13.4%
CC(=O)NC12CC3CC(C)(C1)CC(NC(C)=O)(C3)C2	-1.85%
O=C(NCc1ccc(F)cc1)C1CCCN1C(=O)Nc1ccc(F)cc1 (stereo not drawn)	14.3%
Cc1ccc(NC(=O)CN(C)C(=O)COc2cc(F)ccc2[N+](=O)[O-])cc1	18%
CC(C)(C)C(=O)Nc1ccc(-c2cc3cc(Cl)ccc3o2)cc1	14.1%
O=C(NC(=O)c1ccc(Cl)c(Cl)c1)OC1CCS(=O)(=O)C1 (stereo not drawn)	3.79%
COC(=O)C1CCCN1S(=O)(=O)c1ccc([N+](=O)[O-])cc1 (stereo not drawn)	10.7%
O=C(c1ccco1)N1CCN(Cc2nnc(-c3ccccc3F)o2)CC1	12.1%
CCCC(=O)C1=C(SCC)CC(C)(C)C(C(=O)OC)C1=O (stereo not drawn)	-6.26%
CCC(=O)c1ccc(N2CCC(C)CC2)c(F)c1	12.9%
O=C1C2C3C=CC(C4CC34)C2C(=O)N1/N=C/c1ccc(-c2ccccc2[N+](=O)[O-])o1 (stereo not drawn)	-8.71%
CCc1noc(C)c1C(=O)N1CCCSC1=Nc1ccccc1OC	5.25%

SMILES	hERG current change (%, negative = inhibition) at 1uM
Cc1cc(/C=C2/C(=O)NN(c3ccccc3)C2=O)c(C)n1-c1cccc(O)c1	11.9%
COCc1cc(SC2CCCCC2)nc(C)n1	9.18%
COc1ccc(NC(=O)c2cn(CCC#N)nc2-c2cccs2)cc1	0.166%
CCOC(=O)c1cc([N+](=O)[O-])sc1N	9.33%
Cc1nn(C)cc1C1Nc2ccccc2C(=O)N1O (stereo not drawn)	16.7%
CCC(C)c1ccc(NC(=O)CSc2nncn2N)cc1 (stereo not drawn)	-25.7%
Cc1cccc(NC(=O)CCN2C(=O)C3C4CCC(C4)C3C2=O)c1C (stereo not drawn)	1.65%
Cc1cc(NC(=O)c2ccc(NC(=O)C3CCCO3)cc2)ccc1Br (stereo not drawn)	12.1%
CC(C)(C)c1ccccc1NC(=S)NC1CCCC1	0.305%
O=C(O)c1cc(NN=C2CCN(Cc3ccccc3)CC2)ccc1Cl	10.1%
Cc1cccc2nc(-c3ccco3)c(Nc3ccc4c(c3)OCCO4)n12	11.4%
O=C(Nc1ccccc1)Nc1n[nH]c2nnc(-c3ccccc3)c(-c3ccccc3)c12	3.62%
CCOC(=O)N1CCN(c2nc3c(C)cccn3c(=O)c2C=O)CC1	5.71%
COC(=O)C(=Cc1ccc(OCc2ccc([N+](=O)[O-])cc2)c(OC)c1)C(=O)OC	4.47%
COc1ccc(C2(C(=O)Nc3ccc(C(=O)O)cc3)CCOCC2)cc1	8.06%
CCOc1ccc(OCCN2C(=O)NC(Cc3c[nH]c4ccccc34)C2=O)cc1 (stereo not drawn)	13.1%
CC(Sc1nc2c(c(=O)[nH]1)CCCC2)C(=O)Nc1ccc(S(N)(=O)=O)cc1 (stereo not drawn)	15.8%
COC(=O)N1C(=O)[C@@](c2ccc(OC)cc2)(C(C)C)N1C(=O)OC	16.3%
Cn1cc(CN2CCCC(C(=O)c3cccs3)C2)c(-c2cccc(Cl)c2)n1 (stereo not drawn)	2.71%
Cc1cc2nc3c(nc2cc1C)C1(C(=O)N(C)C)CCC3(C)C1(C)C (stereo not drawn)	3.85%
O=C(CN1CCCCCCC1)N/N=C/c1ccc(F)cc1F	-17.6%
